In the supplement of paper PMC10126150:
Sequences with one replicate were seen in a single cluster, so their values are uncertain.

System: ATP
Assay: switch fluorescence ratio, 500 uM ATP over buffer (Cy3 cluster intensity, sum of 5 cycles each) (fold (ratio)); higher = stronger signal-on switching upon ATP binding; sequences stand for … in TCGTCGGCAGCGTCAGATGTGTATAAGAGACAGTTTTTTTTTTTTTTTTTTTTTTTTT…TC
Settings: aptamer strand: ATP DNA aptamer (quencher-CACCTGGGGGAGTATTGCGGAGGAAGG + anchor), 100 nM annealed; ATP concentration: 500 uM; one replicate
Summary of the method: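 Clusters carrying Cy3-labelled switching strands on a modified Illumina MiSeq flow-cell were annealed to 100 nM quencher-labelled ATP aptamer and imaged in selection buffer. They were imaged again after 15 min with 500 uM ATP at 22 °C, over five buffer/ATP cycles with NaOH stripping and re-annealing in between. For each cluster, the fluorescence ratio is the summed Cy3 intensity of the target cycles divided by that of the buffer cycles, averaged per switch-domain sequence. Clusters outside 100-1000 RFU were left out.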
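Also: ATP exposure 15 min at 22 °C before imaging.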

Sequence | switch fluorescence ratio
CGCGGGTGCG | 0.998
ACAAGATCTA | 1
TCGTCTAAGT | 1.01
CTCCGAACCT | 1.94
GACTCTCTTG | 1
CAGGCGGATC | 0.973
AACAAAGGGT | 1.03
ATGGAGACCA | 1.04
TTCAAACCGT | 1.07
GTTGGCTGTA | 0.942
TTAGGTAGAG | 1.03
GGGCGTCCT | 1.04
AGGCCCGGTT | 1.01
TGTTCATGC | 1.21
AAGTTCGACC | 0.978
AAGTCACCGA | 1.03
TGTTTTCCGC | 1.19
TTCCAGTTGT | 1.03
CATATGCCAC | 1.05
CCAAAATCCT | 1.85
AAATAGAAAG | 1.01
GCCTACTACG | 1.1
GAAAAGGAAA | 0.972

Sequence | switch fluorescence ratio
GCTCTTGTAA | 1.04
GTTACGCCTT | 1.11
TCGTTATCG | 0.997
CGAATGATAG | 0.959
GACTAGCCCG | 0.948
TCAGTGTTCG | 1.05
AGGGCGAAGG | 0.982
AGGCAAATCC | 1.03
GGTTCCGGTT | 0.982
TCCGCTGCCG | 1.19
TTGAGAGT | 1.03
ACCTGGGAAA | 1.01
TGTCCTATCT | 1.01
CTATTGGACA | 1.08
TCACTAGCGG | 1.05
GGCGGGAGCC | 1.05
ACATTAGCGC | 1.04
CAGCTGGTT | 0.997
TTGTTACTTA | 1
GTCCTTTAGT | 0.963
GAATGGCGCG | 0.984
TTTTATAACT | 1.03
ACTGTGATCC | 1.06

Sequence | switch fluorescence ratio
ACATAGGAGG | 1.04
CTTCACCAGA | 1.08
GGTGTGGACG | 0.907
GATTTTAAGC | 1.01
AGCAGCAAGC | 1.44
AAAGGGATTC | 1.01
CCATTGTCC | 1.19
TGCACGGACT | 1.19
TTACTATCCG | 0.992
GCAAGACGAG | 1.43
GGGCACATGA | 0.985
CATTCGTCTG | 1.06
GAACGGGAG | 1
TCGGGACACG | 0.99
TTACTTT | 1
TTCCATCGGT | 0.964
CACGTCTAGT | 0.997
GCTTCTGGAG | 2.13
CTGGTTCGGG | 0.967
GGCTGAGTAT | 1
CTGGCCTCCA | 1.06
TGAATTCGAC | 1.02
AGGTGAAAAA | 0.972

Sequence | switch fluorescence ratio
ACGAGCATAT | 4.34
GGAGTAGGGT | 0.996
ATATCTAGT | 0.936
CGGGGTGACG | 1.24
TAATTTACCG | 1.02
TGACCGGAAT | 2.43
CAAGATAGCA | 1.03
AGCGCTTTCA | 0.976
GTTCATTTCG | 0.985
ACACACCAAT | 1.15
CGCTACACGT | 1.05
CGGACCTCCA | 1.07
GTTATTGAGA | 1.01
GAGGGATGG | 1
CTGGCGGCCA | 1.03
TACGAAGCCT | 1.39
TTGGTTGCGT | 1.03
GTCTTGGTCT | 0.955
CTTGGTATAA | 0.984
AGCCAGAACG | 1.02
TCTTACAAAA | 0.952
CAAGAATTTC | 0.999
CTGTGTTGG | 0.979

Sequence | switch fluorescence ratio
CTTGGTCCGT | 1.07
CCCGGTTAGC | 1.05
ACATGAGATA | 0.952
CAAAGCTTTT | 1.03
AGCAACTTTC | 1.24
GGAATGTAGA | 0.994
TACAGTATTA | 1.04
GATCGAGAGT | 0.963
GCAGGTCACC | 1.04
TTTTACAA | 0.984
TATAATACGA | 1.1
CTTGAAGGCG | 0.95
AAGACATTCC | 2.24
AAGGAGAAAA | 1.01
GAACGTGTTG | 0.993
GTTCAATAAC | 1.06
GGCCCCTTCG | 1.2
TAGGACCGAC | 1.43
CCCCTGAGTT | 1.07
TTTTCCACG | 1
AGCAAAAGGC | 1.05
CCGGTTTGGT | 0.988
TTTGCGGTAC | 4.47

Sequence | switch fluorescence ratio
ACATAGACA | 1.08
TTGCCTGC | 1.05
CGTGATGTTA | 1.05
AAAGATCCAA | 1.01
AGGTGTTTCT | 1.05
CCCGGACTAT | 1.09
GCCCTTAATG | 0.987
ATGGCTGTAA | 0.972
GCGGCTGGTC | 0.999
CTCAAACGAG | 1.03
CACCCTCAGG | 1.45
ACATCAGGTT | 1.02
ATAATATTCT | 1.03
AGGGCGCACA | 0.984
CTCTAGCACT | 1.83
CTTATTTAC | 1.04
GCTACACTGG | 1.04
TCATTTGTCC | 1.06
GTTTTGCGTC | 0.978
CTAATCATGA | 0.938
GGCAACTTAG | 1.07
GCACTAGGAA | 0.972
CAATGGGCGG | 1.02

Sequence | switch fluorescence ratio
GCTGAGTGTG | 1
TATCTATGTC | 0.96
AAATTCCAGC | 1.03
TGCTATTCAA | 0.998
CGGTTGTTCC | 0.979
GATATGTCGA | 1.01
CTATGCGTTG | 1.01
TGAGTTAGGT | 1.02
TTTCAATCGC | 1.04
TATTGGTACC | 0.974
GCAGCTTGTG | 0.963
TGAAAAGCCG | 1.08
CTAATAGGGA | 1
TATGTTTCCG | 1.04
TTTCTCATAC | 1.22
TGGATTCGAT | 0.989
CAGTTGGTCA | 1
GGAACAGCTC | 0.993
TGCGCGTTTT | 1.03
